In PubChem BioAssay AID1508624 (National Center for Advancing Translational Sciences (NCATS), 2021):
Among all 48,000 compounds or so, about 120 (0.25%) were called active. About 4% were inconclusive and are not listed. The call rests on the fitted dose curve; in most records, active means well fitted activation curve with a large enough effect; inconclusive means small, poorly fitted or top-dose-only effect, or another doubt; inactive means no such curve, though single readings can be large or run the other way. This is one part of the list.

Test: Primary qHTS for Identification of Small Molecule Activators of Huntingtin-Antisense Promoter Activity; further: nearly all actives have a fitted effect of over 55% in size
Settings: HEK293 HTT-AS promoter firefly luciferase reporter, 24 h; series mostly up to 57.5 µM; activity change, positive = activation: at the top concentration
In short: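 Quantitative HTS used concentration series of up to 57.5 uM final on HEK293 luciferase reporter cells, 24 h at 37 degrees C. Readout was Dual-Glo firefly luminescence.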

Activity change, positive = activation, inactive:
CCn1cc(C(=O)N2CCN(c3cc(Cl)ccc3C)CC2)c(=O)c2cc(S(=O)(=O)N3CCCC3)ccc21 10.5% [at 11.5 µM, percent change from vehicle, -100% = no light]
COc1cc2nc(SCC(=O)Nc3ccccc3C)n3nc(CCn4c(C)nc5ccccc54)nc3c2cc1OC 4.75%
CC(C)(C)C1CCc2c(sc(NC(=O)c3ccco3)c2C(=O)Nc2ccccc2Cl)C1 (stereo not given) 14.9% [at 11.5 µM, percent change from vehicle, -100% = no light]
CCOCCCNC(=O)c1cn(CC)c2ccc(S(=O)(=O)N3CCOCC3)cc2c1=O -4.3%
CCOC(=O)CSc1nc2ccc(NC(=O)COc3ccc(F)cc3)cc2s1 -10.8%
Cc1cccc2sc(N(Cc3cccnc3)C(=O)CCOc3ccccc3)nc12 -16.2%
COc1ccc(CNC(=O)C2=CC(c3ccc(OC)c(OC)c3)=NS(=O)(=O)N2C)cc1 -13.1%
Cc1cc(C(=O)N2CCN(c3cccc(Cl)c3)CC2)c2c(C)nn(-c3ccccc3Cl)c2n1 -35.9%
CCCSc1ncc(Cl)c(C(=O)N(Cc2ccccc2)c2ccc(OC)cc2)n1 -54.8%
Cc1ccccc1OCC(=O)Nc1ccc(-c2nc3cc(Cl)cc(Cl)c3o2)cc1 23.6%
COc1cccc(NC(=O)N(CCC(C)C)C2CCN(C(C)C)CC2)c1 -8.06%
Cc1ccc(CNC(=O)C2CCN(S(=O)(=O)c3ccc4nc5c(c(C(=O)O)c4c3)CC(C)CC5)CC2)cc1 (stereo not given) -4.42%
CCc1cnc2c(c1SCC(=O)NCc1ccc(C)cc1)c(=O)n(C)c(=O)n2C -9.95%
C[C@@H](N)C(=O)O -5.74%
Cn1ccc2c(OCC(=O)Nc3ccc(OC(F)(F)F)cc3)cccc2c1=O -76.3%
CC(=O)c1ccc(NS(=O)(=O)c2ccc(Br)s2)cc1 -11.5%
Cc1ccc(Cn2c(=O)n(CCCCC(=O)NCc3ccc4c(c3)OCO4)c(=O)c3ccccc32)cc1 -17%
COc1cccc(N2CCN(C3=NS(=O)(=O)C(c4ccc(C)cc4)=C3C)CC2)c1 -5.37%
CCc1ccccc1S(=O)(=O)Cc1ccc(C(=O)NCCc2ccc(C)cc2)o1 -26.3%
CCC(Sc1nnc2c(n1)[nH]c1ccccc12)C(=O)Nc1ccccc1OC (stereo not given) 22.7%
CCc1ccccc1NC(=O)CSc1ncc2c(n1)-c1cc(Cl)ccc1N(Cc1ccccc1)S2(=O)=O -15.1%
Cc1cc(C)cc(C(=O)NCCc2csc(-c3ccc(C(F)(F)F)cc3)n2)c1 -21.8%
CCCCn1cc(S(=O)(=O)c2ccc(OC)cc2)c(=O)c2cc(F)c(N3CCOCC3)cc21 -14.8%
COc1ccc(CCNC(=O)CCc2c(C)nc3c4cccnc4nn3c2C)cc1OC -8.77%
Cc1c(C(=O)OCC2CCCCC2)[nH]c2c1C(=O)CC(c1ccccc1Cl)C2 (stereo not given) -11.2%
CCc1ccc(-n2nc(C)c3c(C)cc(=O)n(CC(=O)Nc4cc(C)ccc4C)c32)cc1 -13.7%
Cc1ccc(N2C(=O)c3n[nH]c(C)c3C2c2ccccc2Cl)cc1 (stereo not given) -25.7%
COc1ccccc1NC(=O)N1CCN(Cc2nc3ccc(C)cc3o2)CC1 -6.57%
Cn1cc(S(=O)(=O)N2CCCC2)cc1C(=O)N1CCN(c2cccc(Cl)c2)CC1 -24.9%
Cc1cnc(Nc2ccc(CN3CCOCC3)cc2)nc1Nc1cccc(S(=O)(=O)NC(C)(C)C)c1 -45.4%
Cc1cc(C)c(NC(=O)Cn2c(=O)n(CC3CCCO3)c(=O)c3ccccc32)c(C)c1 (stereo not given) -16.8%
Cc1cc2c(cc1NS(=O)(=O)c1ccc(NC(=O)CC(C)C)cc1)n(C)c(=O)c(=O)n2C -48.1%
CCOc1ccc(NC(=O)N(Cc2cn(CC)c3ccccc23)C2CCCCCC2)cc1 -9.78%
Cc1cc(C)c(NC(=O)C2CCN(S(=O)(=O)c3c(C)noc3/C=C/c3ccccc3F)CC2)c(C)c1 15.8%
COc1ccc(S(=O)(=O)c2c(Nc3ccc(C)cc3C)sc(C(=O)c3ccc(F)cc3)c2N)cc1 -18.6%
CN(C)c1ccc(C(CNC(=O)c2ccccc2Cl)N2CCCC2)cc1 (stereo not given) 1.97%
Cc1nnsc1C(=O)Oc1ccc(Cl)cc1 -10.5%
CN1C(=O)Cc2cc(S(=O)(=O)NCc3ccc(Cl)cc3)ccc21 -7.72%
O=C(NCc1ccccc1)C(=O)NCC(c1cccs1)S(=O)(=O)c1cccs1 (stereo not given) -20.6%
O=C(CSc1nc2c([nH]c3ccccc32)c(=O)n1-c1cccc(Cl)c1)c1ccccc1 -15.3%
CCN1CCC(N(Cc2ccc3c(c2)OCO3)C(=O)Nc2cccc(C)c2C)CC1 -6.46%
COc1ccc(Nc2ncc3c(n2)CCN(Cc2cccc(F)c2F)C3)c(OC)c1 -3.33%
CC(=O)N1CCCc2cc(S(=O)(=O)NCc3ccccc3Cl)ccc21 -27%
Cc1ccc(C)c(NC(=O)c2cc(S(=O)(=O)N3CCN(c4cccc(Cl)c4)CC3)ccc2F)c1 -22%
CCN(Cc1ccccc1)C(=O)C1CCC(CNS(=O)(=O)c2ccc3c(c2)CCCC(=O)N3)CC1 (stereo not given) -21.7%
CCc1ccc(Nc2nc3c(S(=O)(=O)c4ccc(C)cc4)nnn3c3ccsc23)cc1 -20.6%
Cc1ccc(S(=O)(=O)c2nnn3c2nc(N2CCCC(C)C2)c2cc(Cl)ccc23)cc1C (stereo not given) 2.54%
Oc1c(C(c2ccccc2Cl)N2CCC(O)CC2)sc2nc(-c3ccco3)nn12 (stereo not given) -5.46%
CCN(C(=O)Cn1cc(S(=O)(=O)N2CCN(c3ccccc3F)CC2)c2ccccc2c1=O)c1ccc(C)c(C)c1 -15.6%
Cc1ccc(NC(=O)Cn2c(=O)n(-c3ccccc3)c(=O)c3ccc(C(=O)NCc4ccc5c(c4)OCO5)cc32)cc1 -22.5%
Cc1ccc2oc(C(=O)Nc3ccc(S(=O)(=O)N4CCCCCC4)cc3)cc(=O)c2c1 7.65% [at 11.5 µM, percent change from vehicle, -100% = no light]
CCc1ccc(NC(=O)c2sc(-n3nc(C)c(Cc4ccc5c(c4)OCO5)c3C)nc2C)cc1 -10.3%
CCOc1ccccc1NC(=O)Cn1c(=O)n(-c2ccc(C)c(C)c2)c(=O)c2oc3ccccc3c21 -2.8%
O=C(Oc1ccccc1F)c1nc(SCc2ccccc2F)ncc1Cl -12.2%
COc1ccccc1NC(=O)Cn1nc2c3cc(F)ccc3n(Cc3cccc(C)c3)cc-2c1=O -9.87%
